According to PubChem BioAssay AID493208 (National Center for Advancing Translational Sciences (NCATS), 2011):
About 340 (0.77%) of roughly 44,000 compounds were called active. Another 5% or so got no clear call; they are omitted. Calls follow the shape of the dose curve; as a rule, active = well fitted inhibition curve with a large enough effect; inconclusive = small, poorly fitted or top-dose-only effect; inactive = flat fitted curve, though single readings scatter. The list shows a part of the results.

Test: Acumen qHTS Assay for Inhibitors of the mTORC1 Signaling Pathway in MEF (Tsc2-/-, p53-/-) Cells: Sytravon;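 also: plate controls were DMSO for no effect and rapamycin for full effect; nearly all actives have a fitted effect of over 50% in size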
Conditions: phospho-rpS6 immunofluorescence/PI, 24 h; series mostly up to 38.3 µM; activity change, negative = inhibition: at the top concentration
Procedure, shortened: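 Immunofluorescence of rpS6 phosphorylation in Tsc2-/-, p53-/- MEFs after 24 h compound exposure, normalized to propidium iodide signal. Activity is expressed as % positive cells, thresholded with 7.5 nM rapamycin.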

Activity change, negative = inhibition, inactive:
COc1cccc(Cn2c(NCc3ccc(C)cc3)nc3c2c(=O)n(C)c(=O)n3C)c1 -7.39%
CC(=O)c1ccc(NC(=O)c2ccc(-c3nc(COc4ccc(C)cc4)c(C)o3)cc2)cc1 0.868%
Cc1nn(-c2ccc3nnc(C)n3n2)c(C)c1CCC(=O)Nc1ccc(OC(F)(F)F)cc1 -9.13%
COc1ccc(-c2cn3nc(N4CCCC(C(=O)NCc5ccccc5OC)C4)sc3n2)cc1 (stereo not drawn) -1.06%
CCOC(=O)c1cnc2c(ccc3ccccc32)c1Nc1ccc(Cl)cc1 4.61%
COC(=O)c1cc(-c2ccc(OC)c(OC)c2)c2c(=O)[nH]c(=O)n(C)c2n1 0.473%
CCC(=O)N1CCc2cc(S(=O)(=O)NC(CC(C)C)C(=O)NCc3ccc(F)cc3)ccc21 (stereo not drawn) 1.35%
Cc1ccc(NC(=O)Cn2c(=O)n(Cc3nc(C)no3)c(=O)c3cc4c(cc32)OCO4)c(Cl)c1 -5.14%
Cc1cccc(C)c1NC(=O)Cn1c(=O)n(Cc2ccco2)c(=O)c2ccc(C(=O)NC3CCCC3)cc21 -0.72%
CC1Cc2cc(S(=O)(=O)CCC(=O)Nc3ccc(F)c(Cl)c3)ccc2N1C(=O)C1CC1 (stereo not drawn) -5.96%
O=C(CCn1c(=O)c2sccc2n(Cc2cccc(F)c2)c1=O)NCc1ccc2c(c1)OCO2 6.69%
COc1ccc(-n2c3c(cc(-c4nc(-c5ccc(Cl)cc5)cs4)c2=O)C(=O)CC(C)(C)C3)cc1 -16.4%
COc1ccc(NC(=O)c2sc3nc4n(c(=O)c3c2C)CCC4)cc1Cl 6.99%
Cc1ccc2scc(N3CCN(c4ccc(F)cc4)CC3)c(=O)c2c1 -6.63%
COc1ccc(CCNC(=O)c2ccc3c(c2)N(Cc2cccc(Cl)c2)C(=O)CS3)cc1OC 0%
COc1ccc(C2c3c(n(C)c4ccccc34)C(=O)N2CC(=O)Nc2ccccc2F)cc1 (stereo not drawn) -18.5%
CCOc1ccc(C(c2c(O)cc(C)n(CCOC)c2=O)N2CCC(C)CC2)cc1 (stereo not drawn) 1.56%
O=C(NCc1ccc(Cl)cc1)c1cnc2sc(N3CCCC3)nn2c1=O 2.23%
O=C(CC1N=C2c3ccccc3N=C(SCc3ccccc3F)N2C1=O)NCc1ccc2c(c1)OCO2 (stereo not drawn) -3.48%
COc1ccc(Cl)cc1NC(=O)CN(c1cccc(C)c1C)S(=O)(=O)c1ccccc1 3.72%
COc1cc(C)ccc1OCCn1c(-c2ccc(Cl)cc2)nc2ccccc2c1=O -6.28%
COc1ccc2c(c1)sc1ncc(C(=O)NCc3cccc(Cl)c3)c(=O)n12 -4.31%
Cc1ccc(CCNC(=O)c2ccc(CSCc3ccccc3Cl)o2)cc1 4.97%
CCOc1ccc(NC(=O)Cn2c(=O)oc3cc(S(=O)(=O)N4CCCCCC4)ccc32)cc1 -9.62%
Cc1ccc(N(C)S(=O)(=O)c2nnc(NC(=O)C3CCCCC3)s2)cc1 0.4%
CCc1ccc(CNC(=O)c2cc(-c3ccc(Cl)s3)nc3ccccc23)cc1 15.9%
O=C(Cc1ccc(NC(=O)N2CCSc3ncccc32)cc1)NCCc1ccccc1 -0.575%
CCOC(=O)N1CCc2c(sc3c2c(=O)n(-c2ccc(CC)cc2)c(=O)n3CC(=O)Nc2ccc(C)cc2)C1 0.273%
CCNc1ccc(-c2nc(-c3ccco3)no2)cc1[N+](=O)[O-] -16.3%
CCOc1ccc(CNC(=O)c2ccc3c(c2)c(C)c(C)n3Cc2ccc(Cl)cc2)cc1 3.63%
CN(C)S(=O)(=O)n1cc(/C=C(\NC(=O)c2ccccc2)C(=O)NCCCn2ccnc2)c2ccccc21 0.0857%
O=C(NCCOCCn1c(=O)oc2ccccc21)Nc1ccc(Cl)cc1 0.512%
Cc1ccccc1NC(=O)c1c(NC(=O)Cc2ccccc2)sc2c1CCC2 3.33%
Cc1cc(C)c(NC(=O)c2cc(S(=O)(=O)N3CCN(c4ccccc4F)CC3)ccc2F)c(C)c1 -0.844%
COc1ccc(N2CC(NC(=O)CCc3ccccc3)CC2=O)cc1OC (stereo not drawn) -0.932%
Cc1ccc2oc(=O)n(CCCOc3ccc(Cl)cc3)c2c1 1.53%
CCOC(=O)c1ccccc1NC(=O)N1CCC(N2CCN(Cc3ccccc3)C(=O)C2=O)CC1 0.384%
COc1cc(OC)c(Nc2nc3ccccc3nc2-n2nc(C)cc2C)cc1Cl 0.11%
O=C(Cn1c(=O)n(CC2CCCO2)c(=O)c2ccccc21)Nc1cccc(Cl)c1 (stereo not drawn) 6.99%
COC(=O)c1scc(-c2ccc(C)cc2)c1S(=O)(=O)N1CCN(c2ccc(OC)cc2)CC1 -4.53%
CCS(=O)(=O)N1CCc2cc(C(=O)NCc3ccccc3)ccc21 -2.59%
Cc1ccc(-c2nc3nc(C)cc(Nc4ccccc4O)n3n2)cc1 -4.79%
COc1cc(OC)c(NS(=O)(=O)c2cc(-c3cnc(C)o3)ccc2OC)cc1Cl -8.67%
COCCCNc1nc2c(S(=O)(=O)c3ccc(C)c(C)c3)nnn2c2ccc(Cl)cc12 0.215%
Cc1ccc(NC(=O)CN2C(=O)CCn3nc(-c4cccn4C)cc32)cc1 2.23%
Cc1ccc2oc(-c3cc(NC(=O)c4ccco4)ccc3Cl)nc2c1 15.5%
CSc1ncc(C(=O)Nc2ccc(F)cc2F)c(-c2ccccc2)n1 1.05%
CCCC1=Nc2cc(C(=O)NCCc3ccc(OC)cc3OC)ccc2Sc2ccccc21 -13.3%
Cc1ccc(CNC(=O)c2nn(C)c3c2CS(=O)(=O)c2ccccc2-3)cc1 10.6%
CCC(=O)N1c2ccccc2CC1C(=O)NCCc1ccc(C)cc1 (stereo not drawn) 0%
Cc1cn(C)c(CC(=O)NCc2ccccc2Cl)c1C(=O)O -4.1%
COc1ccc(-n2nc(C(=O)N3CCN(c4cccc(C)c4C)CC3)c3c4ccccc4n(C)c3c2=O)cc1 -0.391%
O=C(CSCc1nc2cccnc2n1C1CCCCC1)NCc1cccc(Cl)c1 3.52%
CCC(C)OC(=O)/C(C#N)=C\c1ccc(-c2ccccc2Cl)o1 (stereo not drawn) 5.56%
O=C(Nc1nc2nc(-c3ccccc3)cc(=O)n2[nH]1)c1ccc(Cl)cc1 3.61%
CNC(=O)COc1ccc(NC(=O)CCn2nc(-c3ccc(C)cc3)c3ccccc3c2=O)cc1 -0.807%
CCOc1ccc(N(CC(=O)NCc2ccc(C)cc2)S(=O)(=O)c2c(C)noc2C)cc1 -3.38%
O=C(c1ccc(CSc2nc3ccncc3n2Cc2cccc(F)c2)cc1)N1CCCCC1 0.868%
CCOC(=O)c1c(C)oc2ccc(N(C(=O)c3ccncc3)S(=O)(=O)c3ccc(Br)cc3)cc12 -2.54%
CC1=C(c2ccc(C(C)C)cc2)S(=O)(=O)NC1=NCc1ccccc1Br 5.94%
CNC(=O)C1CCC(Cn2c(=O)c3sccc3n(CC(=O)Nc3ccc(C)c(F)c3)c2=O)CC1 (stereo not drawn) -6.55%
COc1ccc(C)cc1NC(=O)C1CCCN(S(=O)(=O)c2ccc3[nH]c(=O)ccc3c2)C1 (stereo not drawn) -2.99%
COc1cc(NC(=O)CN2C(=O)CN(C)C(=O)c3ccccc32)cc(OC)c1OC 2.04%
CCOc1cc2[nH]c(=O)n(CCCC(=O)N3CCN(c4ccc(OC)cc4)CC3)c(=O)c2cc1OCC -4.32%
CCOC(=O)c1c(C)[nH]c(C)c1S(=O)(=O)N1CCC(C(=O)Nc2ccc(C)cn2)CC1 2.8%
CCOc1ccc(CCNC(=O)Cn2ncc3c(=O)oc4ccc(C)cc4c32)cc1 11.2%
CCn1c2ccccc2c2cc(NC(=O)COc3cccc(C)c3)ccc21 -10.7%
COc1ccc(OC)c(NS(=O)(=O)c2ccc3[nH]c4c(c3c2)CCCCC4)c1 -7.76%
CCCCN1CC(c2nc3ccccc3n2CCCCOc2ccc(C)c(C)c2)CC1=O (stereo not drawn) 3.09%
Cc1ccc(F)c(NC(=O)Nc2ccc3snnc3c2)c1 -3.01%
CC(=O)N1CCCc2cc(S(=O)(=O)N(C)CC(=O)Nc3cccc(C)c3C)ccc21 -3.8%
CCOc1ccc(CCNC(=O)c2cn(CC)c3ccc(S(=O)(=O)N4CCCCCC4)cc3c2=O)cc1OCC -5.26%
O=C1c2[nH]nc(-c3ccccc3O)c2C(c2cccc(Cl)c2)N1Cc1cccnc1 (stereo not drawn) 0.0067%
O=C(NCCN1CCN(c2cccc(Cl)c2)CC1)C1COc2ccccc2C1 (stereo not drawn) -1.69%
Cc1cccc(CNC(=O)Cn2ccc3cc(S(=O)(=O)N4CCCC4)ccc32)c1 -10.1%
Cc1ccc(S(=O)(=O)N(CCc2ccccc2)CC(=O)Nc2cc(C)ccc2C)cc1 5.95%
CCOC(=O)c1cc(-c2ccc(C)cc2)n(CCC(=O)Nc2ccc(C(C)C)cc2)c1C -4.38%
CN(C)S(=O)(=O)c1ccc(C(=O)NC2CC(=O)N(c3ccc4c(c3)OCCO4)C2)cc1 (stereo not drawn) -11.3%
COc1cc(C2C(C(=O)Nc3ccc(C)cc3C)=C(C)Nc3nc4ccccc4n32)cc(OC)c1OC (stereo not drawn) -29.2%
Cc1cccc(NC(=O)CS(=O)(=O)c2nc(-c3ccccc3)cn2-c2cccc(Cl)c2)c1C 8.9%
Cc1cccc(NC(=O)Cn2nnc(C(=O)Nc3ccccc3Br)c2N)c1C 5.97%
COc1cccc(-c2nc(CS(=O)(=O)CC(=O)Nc3c(C)cc(C)cc3C)c(C)o2)c1 -11.5%
COc1cccc(N2CCN(C(=O)C3CCN(S(=O)(=O)c4c(C)noc4C)CC3)CC2)c1 2.1%
CCOc1ccccc1NC(=O)c1nc2nc(C)cc(C(F)F)n2n1 4.37%
O=C(NC1CC(=O)N(c2ccc(Cl)cc2)C1)c1ccc2c(c1)OCO2 (stereo not drawn) -0.869%
Cc1cc(NC(=O)N(C)CCc2c(C)nn(C)c2C)ccc1Br 7.36%
Cc1ccc2c(=O)cc(C(=O)N(Cc3ccc(N(C)C)cc3)C3CCS(=O)(=O)C3)oc2c1 (stereo not drawn) 4.02%
CCCN1CCN(CCCNC(=O)Cn2nc(CC)n3c(cc4occc43)c2=O)CC1 -10.2%
CCc1cccc(C)c1NC(=O)CSc1nc2ccccc2nc1N1CCOCC1 -6.13%
COc1ccc(Cn2c(SCc3ccc(C(=O)NCc4cccs4)cc3)nc3cccnc32)cc1 -2.19%
CC1(C)O[C@H]2[C@@H](O1)[C@@H](C(=O)Nc1ccc(F)c(F)c1)O[C@@H]1OC(C)(C)O[C@@H]12 2.28%
Cc1cc(F)ccc1NS(=O)(=O)c1c(C)nc2scc(C)n2c1=O -18.6%
COc1ccccc1CN1C(=O)CN(C2CCCCCC2)C(=O)C1c1ccc(C)cc1 (stereo not drawn) -0.188%
